# Measured values as given in PubChem BioAssay AID1508642 (National Center for Advancing Translational Sciences (NCATS), 2021).
# Screen size: about 43,000 compounds; about 200 (0.47%) were called active. Not shown: some 12% with an inconclusive outcome. The call rests on the fitted dose curve; in most records, active means well fitted cell-killing curve with a large enough effect; inconclusive means small, poorly fitted or top-dose-only effect, or effect the other way; inactive means flat fitted curve, though single readings scatter. The list shows a part of the results.
# Assay: Cell viability qHTS assay in S16 Pmp22-F2sN cells; further: nearly all actives have a fitted effect of over 65% in size
# Conditions: S16 Pmp22-F2sN Schwann cells viability, CellTiter-Glo, 24 h; series mostly up to 57.5 µM; activity change, negative = cytotoxicity: at the top concentration
# Procedure, shortened: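 Used to flag compounds lowering reporter output through toxicity, this quantitative HTS measures ATP-based CellTiter-Glo luminescence in S16 Pmp22-F2sN Schwann cells after 24 h compound exposure at 37C.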
# On the % scale 0 is the no-effect control and ±100 the full control effect.
row,SMILES,"activity change, negative = cytotoxicity"
1,CCCCCCc1c(C)c2c(cc(C)c3c(C)coc32)oc1=O,inactive: 0.878%
2,Cc1ccc(C)c(NC(=O)Cn2ncc3c(C)n(Cc4ccc(F)cc4)c(C)c3c2=O)c1,inactive: 6.25%
3,CCn1nc(C)c2c(-c3ccccc3)cc(=O)n(C(C)C(=O)Nc3ccc(OC)c(OC)c3)c21 (configuration not stated),inactive: 24.8%
4,COc1ccc(C2C=C(c3ccccc3)Nc3nc(NC(C)=O)nn32)cc1 (configuration not stated),inactive: -21.3%
5,Cc1cccc(NC(=O)Nc2cccs2)c1C,inactive: -6.02%
6,O=C(CCc1cn(Cc2ccc(F)cc2)c2ccccc12)NC1CCCCC1,inactive: 2.57%
7,COc1ccc(-c2cc(C(F)(F)F)n3nc(C)c(-c4ccccc4)c3n2)cc1OC,inactive: 22.7%
8,N#C/C(=C\c1ccc(O)cc1)C(=O)NCC1CCCO1 (configuration not stated),inactive: 17.5%
9,CC1=C(c2ccc(C)c(C)c2)S(=O)(=O)N(Cc2ccc(C(=O)NCc3ccccc3F)cc2)C1=O,inactive: -0.749%
10,Cc1cc(C)cc(NC(=O)Cn2nnc(-c3ccccc3F)n2)c1,inactive: 12.1%
11,Cc1ccc(CNC(=O)CSc2c(C)cnc3c2c(=O)n(C)c(=O)n3C)cc1,inactive: -0.791%
12,CCOC(=O)N1CCc2c(sc3c2c(=O)n(-c2ccc(CC)cc2)c(=O)n3Cc2cccc(Cl)c2)C1,inactive: 9.5%
13,CCC1CN(C(=O)N2CCC(C(=O)NCCc3ccc(OC)c(OC)c3)CC2)c2ccccc2O1 (configuration not stated),inactive: -0.259%
14,CCn1cc(C(=O)OCC(=O)Nc2cc(Cl)ccc2C)c(=O)c2ccc(C)nc21,inactive: -0.51%
15,Cc1ccc(NC(=O)C2CCN(S(=O)(=O)c3cccc4nsnc34)CC2)cc1,inactive: 15.9%
16,CCCCOc1ccc(C2C(=O)N(C3CCCCC3)CC(=O)N2C2CCCCC2)cc1 (configuration not stated),inactive: 3.37%
17,Cc1ccc(NC(=O)CN2C(=O)C(c3ccc(F)cc3)=NC23CCCCCC3)c(C)c1,inactive: 4.11%
18,Cc1ccc(C)c(N2CCN(C(=O)c3cc4cc5ccc(C)cc5nc4o3)CC2)c1,inactive: 6.57%
19,Cc1coc2c1c(C)cc1oc(=O)c(CC(=O)NCCc3ccc(Cl)cc3)c(C)c12,inactive: 4.62%
20,O=C(NCCc1ccc(Cl)cc1)C(=O)NCC(c1ccco1)S(=O)(=O)c1ccccc1 (configuration not stated),inactive: 6.71%
21,Cc1ccc(NC(=O)C(=O)NCC(c2cccnc2)N2CCN(C)CC2)cc1 (configuration not stated),inactive: 7.82%

row,SMILES,"activity change, negative = cytotoxicity"
1,Cc1c(C(=O)NCc2ccccc2)oc2ccc(S(=O)(=O)N3CCC(C)CC3)cc12,inactive: 1.97%
2,COc1ccc(C)cc1NC(=O)c1ccc2nc(Cc3ccccc3)oc2c1,inactive: -18.1%
3,CCn1c2c(c(=O)n3ncc(C(=O)Nc4ccc(C(=O)OC)cc4)c13)CN(Cc1ccc(OC)cc1)CC2,inactive: -32.5%
4,COc1ccc(CCNC(=O)c2c(O)nc3c(C)cccn3c2=O)cc1OC,inactive: -5.07%
5,COc1ccc(N2CCN(C(=O)CSc3nc4ccccc4nc3Cc3ccc(Cl)cc3)CC2)cc1,inactive: 0.75%
6,Cc1c(C(=O)NCCc2ccc(Cl)cc2)cccc1-n1cnc2cccnc21,inactive: -4.96%
7,CCOC(=O)Cn1c(=O)n(CC2CCCO2)c2nc(-c3ccccc3Cl)nc(C(N)=O)c21 (configuration not stated),inactive: 7.48%
8,Cc1cc(C)cc(NC(=O)c2sc3nc[nH]c(=O)c3c2C)c1,inactive: -5.95%
9,Cc1ccc(CNC(=O)c2c(-c3ccc(Br)cc3)noc2C)o1,inactive: -10.5%
10,CCOc1ccccc1NC(=O)C1=C(C)Nc2ncnn2C1c1sccc1C (configuration not stated),inactive: 1.55%
11,O=C(CCCn1c(=O)c2cccn2c2cccnc21)Nc1ccccc1C(F)(F)F,inactive: 4.81%
12,CCOC(=O)c1ccc(CN(Cc2ccc(OC)cc2)S(=O)(=O)c2cccc(C(F)(F)F)c2)cc1,inactive: 6.77%
13,COc1ccccc1C(=O)Nc1c(C(=O)c2ccccc2)oc2ccccc12,inactive: 17.2%
14,CCOc1ccc(N(CC)C(=O)c2noc3c2COc2ccc(C)cc2-3)cc1,inactive: 24.6%
15,O=c1c(N2CCc3ccccc3C2)csc2ccc(F)cc12,inactive: 2.15%
16,CC1=C(C(=O)Nc2ccccc2C)C(c2cccs2)n2nc(SCc3cc(C)ccc3C)nc2N1 (configuration not stated),inactive: -1.11%
17,Cc1ccc2oc(C(=O)Nc3nc(-c4ccc(F)cc4)ns3)c(C)c2c1,inactive: -1.77%
18,CCc1ccc(C(=O)c2cn(CC(=O)Nc3ccc4c(c3)OCCO4)c3ccc(CC)cc3c2=O)cc1,inactive: -4.38%
19,Cc1ccccc1OCC(=O)Nc1ccc(C(=O)OCc2cc(=O)n3c(C)csc3n2)cc1,inactive: -0.814%
20,CCCN(CCC)C(=O)c1c[nH]c2ccc(S(=O)(=O)N(C)c3ccc(OCC)cc3)cc2c1=O,inactive: -12.3%
21,COc1ccc(CCNC(=O)c2ccc3c(Cl)c4c(nc3c2)CCCC4)cc1OC,inactive: 17.7%

row,SMILES,"activity change, negative = cytotoxicity"
1,COCCCNC(=O)C1CCCN(c2ncnc3onc(C)c23)C1 (configuration not stated),inactive: -1.54%
2,Cc1cccc(N2CCN(C(=O)c3cc4c(=O)[nH]c5ccc(C)cc5c4s3)CC2C)c1 (configuration not stated),inactive: 9.86%
3,COc1ccc(Cn2c(CNC(=O)Cc3cccc([N+](=O)[O-])c3)nc3cccnc32)cc1,inactive: 1.07%
4,CC(=O)N1CCN(c2nc3c(F)cc(F)cc3s2)CC1,inactive: 2.9%
5,COc1cccc(NC(=O)CSC2=Nc3ccccc3C3=NC(CC(=O)NCc4cccs4)C(=O)N23)c1 (configuration not stated),inactive: 11.7%
6,COc1ccc(C2c3c(oc4cc(C)cc(C)c4c3=O)C(=O)N2Cc2ccco2)cc1OC (configuration not stated),inactive: 10.7%
7,COc1ccc(S(=O)(=O)NC(C)C)cc1-n1cnnn1,inactive: 1.08%
8,O=C(Nc1ccc(OC(F)(F)F)cc1)C1CCCN(S(=O)(=O)c2ccc(Br)s2)C1 (configuration not stated),inactive: -3.83%
9,O=C(Cc1csc2ccccc12)NCc1ccc(F)cc1,inactive: 4.41%
10,COc1ccc(C(C(=O)Nc2ccc(C(C)C)cc2)N(C)C(=O)Cc2cccs2)cc1 (configuration not stated),inactive: -12.6%
11,Cc1ccc(NC(=O)Cn2c(SCc3cccc(F)c3)nc3ccncc32)c(C)c1,inactive: -7.4%
12,CC(C)(C)c1ccc(C(=O)Nc2nc3nc(-c4ccccc4)cc(=O)n3[nH]2)cc1,inactive: 4.74%
13,C#CC(C)(CC)NC(=O)Cn1nnc(-c2ccc(OCc3ccccc3Cl)cc2)n1 (configuration not stated),inactive: -3.64%
14,COc1ccc(Br)cc1CNC(=O)CN1C(=O)CCCc2ccccc21,inactive: 6.8%
15,COc1cccc(NC(c2nnc(-c3ccccc3)o2)c2ccc(F)cc2Cl)c1 (configuration not stated),inactive: 4.96%
16,Cc1ccccc1Cn1c(=O)n(Cc2ccco2)c(=O)c2oc3ccccc3c21,inactive: 4.23%
17,O=C(c1ccc2c(c1)CCN2S(=O)(=O)c1ccc(Cl)cc1)N1CCN(c2ccccc2F)CC1,inactive: -4.56%
18,CC(C)N(Cc1ccccc1)C(=O)c1cc2ccc3cccnc3c2[nH]1,inactive: -26%
19,CCC(CC)C(=O)Nc1ccc(OCc2cc(=O)n3ccc(C)cc3n2)cc1,inactive: 7.45%
20,CCOC(=O)C1CCN(C(=O)c2nn(-c3ccc(C)cc3)c(=O)c3c2c2ccccc2n3C)CC1,inactive: -3.84%
